Article PMC5986711
Results are given in words; binding and its absence hold for the method and conditions named. Some binding calls cover weakened binding; strength is not graded here.

By UniProt entry, the sequences of proteins in these tests, tags left out.
UniProt Q01892: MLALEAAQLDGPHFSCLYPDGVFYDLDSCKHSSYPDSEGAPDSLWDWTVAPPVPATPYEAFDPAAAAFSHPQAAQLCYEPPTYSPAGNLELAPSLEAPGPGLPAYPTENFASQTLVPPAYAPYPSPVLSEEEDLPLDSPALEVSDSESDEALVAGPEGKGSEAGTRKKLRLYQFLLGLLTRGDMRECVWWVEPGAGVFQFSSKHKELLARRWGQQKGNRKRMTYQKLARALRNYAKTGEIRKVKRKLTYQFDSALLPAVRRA

Assays:
Experiment in all cases: native gel or EMSA; nuclear extracts of HeLa cells transfected with IRF8 WT, R83C or R291Q mixed with extracts containing the cofactor; 32P end-labelled double-stranded DNA probe (PSMB8 EICE, TAPASIN ISRE or IL10 AICE), poly(dI:dC), 30 minutes at room temperature; the IRF8/cofactor complex is seen on the DNA probe
[1] = target: Spi-B transcription factor (SPIB) (human) (UniProt Q01892)
BATF/JUNB (human) = target: T1, BATF/JUNB (human) (UniProt Q16520+P17275)
T1 sequence 1: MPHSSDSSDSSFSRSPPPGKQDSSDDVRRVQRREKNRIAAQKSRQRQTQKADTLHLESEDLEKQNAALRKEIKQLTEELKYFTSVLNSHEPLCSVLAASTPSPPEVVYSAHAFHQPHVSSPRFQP
T1 sequence 2: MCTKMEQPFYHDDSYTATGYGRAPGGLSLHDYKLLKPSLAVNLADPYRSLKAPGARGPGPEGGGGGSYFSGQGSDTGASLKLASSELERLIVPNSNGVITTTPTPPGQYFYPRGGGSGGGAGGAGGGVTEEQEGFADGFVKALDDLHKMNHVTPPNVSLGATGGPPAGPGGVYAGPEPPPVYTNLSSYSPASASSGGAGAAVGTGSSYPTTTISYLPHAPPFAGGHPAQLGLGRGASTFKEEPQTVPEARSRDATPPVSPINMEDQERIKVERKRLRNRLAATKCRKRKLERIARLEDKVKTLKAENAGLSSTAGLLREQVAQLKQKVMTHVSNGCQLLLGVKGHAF

IRF1 (human) = target: T2, IRF1 (human) (UniProt P10914)
T2 sequence: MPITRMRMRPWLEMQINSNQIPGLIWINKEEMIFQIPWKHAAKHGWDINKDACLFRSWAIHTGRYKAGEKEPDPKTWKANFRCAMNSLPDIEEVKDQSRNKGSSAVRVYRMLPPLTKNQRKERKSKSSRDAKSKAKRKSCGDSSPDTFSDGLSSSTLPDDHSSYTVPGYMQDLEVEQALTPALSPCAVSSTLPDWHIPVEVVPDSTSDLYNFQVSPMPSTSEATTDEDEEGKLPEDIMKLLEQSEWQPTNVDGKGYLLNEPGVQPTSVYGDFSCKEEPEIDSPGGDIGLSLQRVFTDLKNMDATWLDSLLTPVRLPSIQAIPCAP

B1: interferon regulatory factor 8 (IRF8), wild type (protein, UniProt Q02556 1-426)
chain: MCDRNGGRRLRQWLIEQIDSSMYPGLIWENEEKSMFRIPWKHAGKQDYNQEVDASIFKAWAVFKGKFKEGDKAEPATWKTRLRCALNKSPDFEEVTDRSQLDISEPYKVYRIVPEEEQKCKLGVATAGCVNEVTEMECGRSEIDELIKEPSVDDYMGMIKRSPSPPEACRSQLLPDWWAQQPSTGVPLVTGYTTYDAHHSAFSQMVISFYYGGKLVGQATTTCPEGCRLSLSQPGLPGTKLYGPEGLELVRFPPADAIPSERQRQVTRKLFGHLERGVLLHSSRQGVFVKRLCQGRVFCSGNAVVCKGRPNKLERDEVVQVFDTSQFFRELQQFYNSQGRLPDGRVVLCFGEEFPDMAPLRSKLILVQIEQLYVRQLAEEAGKSCGAGSVMQAPEEPPPDQVFRMFPDICASHQRSFFRENQQITV
- binding [1]: binds
- binding (BATF/JUNB (human)): binds
- binding (IRF1 (human)): binds

B2: interferon regulatory factor 8 (IRF8) R291Q (protein, UniProt Q02556 1-426)
chain: MCDRNGGRRLRQWLIEQIDSSMYPGLIWENEEKSMFRIPWKHAGKQDYNQEVDASIFKAWAVFKGKFKEGDKAEPATWKTRLRCALNKSPDFEEVTDRSQLDISEPYKVYRIVPEEEQKCKLGVATAGCVNEVTEMECGRSEIDELIKEPSVDDYMGMIKRSPSPPEACRSQLLPDWWAQQPSTGVPLVTGYTTYDAHHSAFSQMVISFYYGGKLVGQATTTCPEGCRLSLSQPGLPGTKLYGPEGLELVRFPPADAIPSERQRQVTRKLFGHLERGVLLHSSRQGVFVKQLCQGRVFCSGNAVVCKGRPNKLERDEVVQVFDTSQFFRELQQFYNSQGRLPDGRVVLCFGEEFPDMAPLRSKLILVQIEQLYVRQLAEEAGKSCGAGSVMQAPEEPPPDQVFRMFPDICASHQRSFFRENQQITV
- binding [1]: no binding
- binding (BATF/JUNB (human)): binds
- binding (IRF1 (human)): no binding

B3: interferon regulatory factor 8 (IRF8) R83C (protein, UniProt Q02556 1-426)
chain: MCDRNGGRRLRQWLIEQIDSSMYPGLIWENEEKSMFRIPWKHAGKQDYNQEVDASIFKAWAVFKGKFKEGDKAEPATWKTRLCCALNKSPDFEEVTDRSQLDISEPYKVYRIVPEEEQKCKLGVATAGCVNEVTEMECGRSEIDELIKEPSVDDYMGMIKRSPSPPEACRSQLLPDWWAQQPSTGVPLVTGYTTYDAHHSAFSQMVISFYYGGKLVGQATTTCPEGCRLSLSQPGLPGTKLYGPEGLELVRFPPADAIPSERQRQVTRKLFGHLERGVLLHSSRQGVFVKRLCQGRVFCSGNAVVCKGRPNKLERDEVVQVFDTSQFFRELQQFYNSQGRLPDGRVVLCFGEEFPDMAPLRSKLILVQIEQLYVRQLAEEAGKSCGAGSVMQAPEEPPPDQVFRMFPDICASHQRSFFRENQQITV
- binding [1]: no binding
- binding (BATF/JUNB (human)): no binding
- binding (IRF1 (human)): no binding
